Not every entry of the source has a single result; some have several. The list is limited to them. An entry can have further records. Some protein pairs were linked at several places, one record each.

Holding throughout (settings): DSSO, in cells
In test [1] the target is CALR (UniProt P27797).
Test [2] addresses ACIN1 (UniProt Q9UKV3).
Test [3] deals with CCT3 (UniProt P49368).
Test [4] has as its target CCT8 (UniProt P50990).
The target in test [5] is CAVIN1 (UniProt Q6NZI2).
In test [6] the target is DDX27 (UniProt Q96GQ7).
Test [7] addresses ECH1 (UniProt Q13011).
The target of test [8] is HSPE1 (UniProt P61604).
Test [9] deals with IDH3A (UniProt P50213).
For test [10], the target named is LRPPRC (UniProt P42704).
Test [11] deals with PITRM1 (UniProt Q5JRX3).
The target in test [12] is TRAP1 (UniProt Q12931).
For test [13], the target named is TUFM (UniProt P49411).
The target in test [14] is DDX24 (UniProt Q9GZR7).
The target of test [15] is DCTN2 (UniProt Q13561).
Test [16] addresses C1QBP (UniProt Q07021).
In test [17] the target is MDH2 (UniProt P40926).
In test [18] the target is CCT2 (UniProt P78371).
The target of test [19] is COPA (UniProt P53621).
Test [20] concerns the target CCT6A (UniProt P40227).
For test [21], the target named is TCP1 (UniProt P17987).
Test [22] has as its target DDX23 (UniProt Q9BUQ8).
In test [23] the target is PRPF31 (UniProt Q8WWY3).
Test [24] deals with WBP11 (UniProt Q9Y2W2).
Test [25] has as its target COA3 (UniProt Q9Y2R0).
In test [26] the target is BCLAF1 (UniProt Q9NYF8).
The target of test [27] is CHTOP (UniProt Q9Y3Y2).
The target in test [28] is THRAP3 (UniProt Q9Y2W1).
The target of test [29] is GALNT2 (UniProt Q10471).
Test [30] concerns the target TMED4 (UniProt Q7Z7H5).
In test [31] the target is FLOT2 (UniProt Q14254).
For test [32], the target named is CCT4 (UniProt P50991).
Test [33] has as its target CCT7 (UniProt Q99832).
In test [34] the target is AATF (UniProt Q9NY61).
The target of test [35] is ERLIN2 (UniProt O94905).
The target in test [36] is EIF4G2 (UniProt P78344).

Sequence of UniProt Q14254 (Q14254 whole entry): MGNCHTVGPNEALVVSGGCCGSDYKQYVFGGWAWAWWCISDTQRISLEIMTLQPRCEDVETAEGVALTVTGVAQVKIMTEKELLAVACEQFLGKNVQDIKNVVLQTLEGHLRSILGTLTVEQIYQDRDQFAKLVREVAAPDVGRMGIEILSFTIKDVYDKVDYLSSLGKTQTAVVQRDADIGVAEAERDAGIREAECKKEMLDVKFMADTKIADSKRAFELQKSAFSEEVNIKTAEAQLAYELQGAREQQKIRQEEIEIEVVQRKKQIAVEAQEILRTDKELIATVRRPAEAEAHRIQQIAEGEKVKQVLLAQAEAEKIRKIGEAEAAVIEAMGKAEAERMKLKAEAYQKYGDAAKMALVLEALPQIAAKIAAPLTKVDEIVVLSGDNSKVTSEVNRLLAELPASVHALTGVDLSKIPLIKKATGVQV
Sequence of UniProt P50213 (P50213 whole entry): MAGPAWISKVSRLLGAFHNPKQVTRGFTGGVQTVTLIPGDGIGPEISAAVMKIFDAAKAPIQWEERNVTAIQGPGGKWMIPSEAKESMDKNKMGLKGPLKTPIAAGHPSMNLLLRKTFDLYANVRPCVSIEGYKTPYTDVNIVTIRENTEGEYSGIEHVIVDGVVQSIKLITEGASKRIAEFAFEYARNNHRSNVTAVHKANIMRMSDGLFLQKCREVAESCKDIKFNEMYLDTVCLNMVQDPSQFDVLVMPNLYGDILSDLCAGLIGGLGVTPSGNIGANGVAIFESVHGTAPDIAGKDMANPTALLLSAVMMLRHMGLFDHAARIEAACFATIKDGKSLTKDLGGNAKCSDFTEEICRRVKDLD
Sequence of PDCD5 (O14737 whole entry): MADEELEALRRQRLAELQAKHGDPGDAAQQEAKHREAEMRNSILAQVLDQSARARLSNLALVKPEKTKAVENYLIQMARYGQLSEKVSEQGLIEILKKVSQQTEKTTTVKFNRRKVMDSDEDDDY
Sequence of UniProt P78371 (P78371 whole entry): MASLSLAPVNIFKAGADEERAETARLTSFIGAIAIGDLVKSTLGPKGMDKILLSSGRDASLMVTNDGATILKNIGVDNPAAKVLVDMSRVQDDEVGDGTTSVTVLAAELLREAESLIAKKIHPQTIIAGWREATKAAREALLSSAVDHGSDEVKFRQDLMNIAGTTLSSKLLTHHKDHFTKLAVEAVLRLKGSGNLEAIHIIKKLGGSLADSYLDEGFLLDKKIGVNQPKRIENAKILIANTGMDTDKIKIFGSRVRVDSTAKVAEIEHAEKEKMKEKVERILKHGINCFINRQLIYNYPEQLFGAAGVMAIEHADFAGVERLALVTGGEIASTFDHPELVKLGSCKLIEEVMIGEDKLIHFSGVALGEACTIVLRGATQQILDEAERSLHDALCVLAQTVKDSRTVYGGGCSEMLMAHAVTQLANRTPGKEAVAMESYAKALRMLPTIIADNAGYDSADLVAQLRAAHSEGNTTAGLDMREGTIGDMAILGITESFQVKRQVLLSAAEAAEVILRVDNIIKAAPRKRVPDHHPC
Sequence of UniProt Q9UKV3 (Q9UKV3 whole entry): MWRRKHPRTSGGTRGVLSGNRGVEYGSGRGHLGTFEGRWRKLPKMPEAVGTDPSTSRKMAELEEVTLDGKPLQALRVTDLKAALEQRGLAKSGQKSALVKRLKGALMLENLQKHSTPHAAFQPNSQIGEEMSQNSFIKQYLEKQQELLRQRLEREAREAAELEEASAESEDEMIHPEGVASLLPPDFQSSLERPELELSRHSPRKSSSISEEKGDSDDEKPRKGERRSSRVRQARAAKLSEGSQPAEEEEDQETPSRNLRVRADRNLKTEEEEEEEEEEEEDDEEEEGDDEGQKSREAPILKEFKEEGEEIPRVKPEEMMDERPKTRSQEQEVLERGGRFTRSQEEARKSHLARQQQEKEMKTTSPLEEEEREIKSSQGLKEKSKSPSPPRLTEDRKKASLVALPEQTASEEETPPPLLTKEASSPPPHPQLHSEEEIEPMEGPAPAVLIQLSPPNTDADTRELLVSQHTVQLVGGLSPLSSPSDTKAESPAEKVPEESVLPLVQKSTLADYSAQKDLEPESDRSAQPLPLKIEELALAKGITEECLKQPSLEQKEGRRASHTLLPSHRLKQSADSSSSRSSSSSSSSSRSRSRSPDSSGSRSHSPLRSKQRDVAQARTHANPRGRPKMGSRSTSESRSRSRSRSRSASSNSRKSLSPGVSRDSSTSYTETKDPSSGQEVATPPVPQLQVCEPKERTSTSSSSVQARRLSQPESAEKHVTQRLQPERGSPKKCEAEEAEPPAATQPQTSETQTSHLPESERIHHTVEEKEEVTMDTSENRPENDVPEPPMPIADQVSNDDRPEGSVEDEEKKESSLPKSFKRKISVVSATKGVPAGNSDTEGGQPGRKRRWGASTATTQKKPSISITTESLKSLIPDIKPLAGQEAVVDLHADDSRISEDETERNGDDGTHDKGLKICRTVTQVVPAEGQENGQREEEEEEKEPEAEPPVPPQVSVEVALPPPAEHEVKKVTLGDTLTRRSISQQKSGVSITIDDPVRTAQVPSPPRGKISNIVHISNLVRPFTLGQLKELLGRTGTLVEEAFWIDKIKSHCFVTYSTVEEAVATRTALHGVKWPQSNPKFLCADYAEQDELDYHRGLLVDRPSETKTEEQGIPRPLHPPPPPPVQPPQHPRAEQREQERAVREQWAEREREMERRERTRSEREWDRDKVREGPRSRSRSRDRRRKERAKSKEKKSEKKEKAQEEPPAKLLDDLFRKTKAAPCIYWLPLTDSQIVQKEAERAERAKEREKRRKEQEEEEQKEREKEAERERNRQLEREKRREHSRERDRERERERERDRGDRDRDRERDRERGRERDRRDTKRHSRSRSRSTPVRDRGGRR
Sequence of UniProt Q9Y3Y2 (Q9Y3Y2 whole entry): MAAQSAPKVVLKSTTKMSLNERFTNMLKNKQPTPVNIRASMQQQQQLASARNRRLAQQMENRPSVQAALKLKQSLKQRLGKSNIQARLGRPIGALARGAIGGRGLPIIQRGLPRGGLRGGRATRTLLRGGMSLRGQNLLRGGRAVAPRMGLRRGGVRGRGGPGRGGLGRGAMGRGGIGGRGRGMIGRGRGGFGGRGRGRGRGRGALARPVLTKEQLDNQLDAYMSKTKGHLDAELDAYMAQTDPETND
Sequence of UniProt P61604 (P61604 whole entry): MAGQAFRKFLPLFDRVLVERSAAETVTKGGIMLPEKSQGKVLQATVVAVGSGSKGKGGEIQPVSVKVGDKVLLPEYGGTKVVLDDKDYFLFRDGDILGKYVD
Sequence of NGDN (Q8NEJ9 whole entry): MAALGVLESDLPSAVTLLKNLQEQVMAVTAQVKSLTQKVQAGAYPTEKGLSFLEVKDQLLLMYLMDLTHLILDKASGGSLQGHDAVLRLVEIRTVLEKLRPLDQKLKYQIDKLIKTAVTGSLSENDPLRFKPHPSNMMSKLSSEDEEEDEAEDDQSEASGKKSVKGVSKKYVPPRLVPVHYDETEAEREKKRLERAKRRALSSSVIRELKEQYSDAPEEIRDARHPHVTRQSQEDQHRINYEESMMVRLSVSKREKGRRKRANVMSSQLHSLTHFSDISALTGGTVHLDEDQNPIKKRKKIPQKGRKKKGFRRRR
Sequence of UniProt P50990 (P50990 whole entry): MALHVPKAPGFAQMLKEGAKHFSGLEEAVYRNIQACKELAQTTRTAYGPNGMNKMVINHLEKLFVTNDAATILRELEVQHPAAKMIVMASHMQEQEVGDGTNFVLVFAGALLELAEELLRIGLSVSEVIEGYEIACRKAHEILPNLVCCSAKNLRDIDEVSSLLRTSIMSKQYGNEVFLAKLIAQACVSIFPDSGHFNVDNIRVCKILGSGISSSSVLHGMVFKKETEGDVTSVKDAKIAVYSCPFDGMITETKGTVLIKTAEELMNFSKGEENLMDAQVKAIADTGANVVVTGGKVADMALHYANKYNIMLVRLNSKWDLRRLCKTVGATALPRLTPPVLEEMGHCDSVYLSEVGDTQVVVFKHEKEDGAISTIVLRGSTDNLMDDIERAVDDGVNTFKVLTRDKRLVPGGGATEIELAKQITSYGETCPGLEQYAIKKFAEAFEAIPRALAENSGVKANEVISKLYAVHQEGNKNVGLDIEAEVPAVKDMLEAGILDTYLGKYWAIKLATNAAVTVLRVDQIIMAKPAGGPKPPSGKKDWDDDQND
Sequence of TMED10 (P49755 whole entry): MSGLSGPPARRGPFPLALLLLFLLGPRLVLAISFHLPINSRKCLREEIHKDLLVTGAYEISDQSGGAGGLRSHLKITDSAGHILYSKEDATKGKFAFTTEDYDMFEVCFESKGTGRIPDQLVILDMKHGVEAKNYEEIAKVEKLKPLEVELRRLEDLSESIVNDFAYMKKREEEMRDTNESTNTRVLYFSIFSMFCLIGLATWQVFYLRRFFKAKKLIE
Sequence of CCT6A, P40227 (P40227 whole entry): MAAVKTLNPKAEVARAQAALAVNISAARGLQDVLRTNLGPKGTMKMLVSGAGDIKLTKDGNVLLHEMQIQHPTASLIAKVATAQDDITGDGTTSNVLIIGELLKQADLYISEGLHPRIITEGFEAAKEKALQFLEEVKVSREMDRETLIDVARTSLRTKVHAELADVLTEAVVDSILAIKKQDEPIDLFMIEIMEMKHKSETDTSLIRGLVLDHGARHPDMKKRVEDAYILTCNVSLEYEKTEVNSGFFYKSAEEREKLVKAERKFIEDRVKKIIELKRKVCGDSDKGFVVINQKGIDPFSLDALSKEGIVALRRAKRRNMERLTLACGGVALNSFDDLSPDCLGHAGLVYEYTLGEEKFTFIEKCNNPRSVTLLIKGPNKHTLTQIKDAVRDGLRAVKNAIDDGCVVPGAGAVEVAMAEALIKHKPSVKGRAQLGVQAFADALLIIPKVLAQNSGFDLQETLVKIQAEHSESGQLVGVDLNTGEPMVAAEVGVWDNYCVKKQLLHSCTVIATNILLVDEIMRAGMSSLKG
Sequence of ERH (P84090 whole entry): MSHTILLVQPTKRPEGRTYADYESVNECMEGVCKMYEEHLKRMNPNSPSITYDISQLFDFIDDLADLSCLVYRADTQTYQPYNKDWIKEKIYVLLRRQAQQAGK

Take ITGB1, P05556: the cross-linked residues result in [1] was “K100 - K209 and K202 - K153”.

In the case of PNN, Q9H307, the cross-linked residues result in test [2] is “K157 - K970 and K157 - K986 and K157 - K1073”. CCT6A, P40227: the cross-linked residues result in test [3] is “K5 - T14 and K5 - K78 and K10 - S11 and K10 - K21 and K10 - K31 and K10 - K78 and K530 - K78 and K530 - K527”; in [4] it was “K5 - K20 and K10 - K7 and K10 - K16 and K10 - K20 and K199 - K400 and K251 - K270”. Take CAVIN2, O95810: the cross-linked residues entry in test [5] was “K99 - K98 and K102 - K98 and K120 - K122”. In the case of RPL35, P42766, the cross-linked residues entry in [6] was “K35 - K610 and S42 - K625 and K43 - K610”. Turning to MDH2, P40926, the cross-linked residues entry in [7] is “K239 - K231 and K239 - K318”; in test [8], “K239 - K8 and K239 - K28 and K239 - K36 and K239 - K56”; in [9], “K239 - S176 and K239 - K339 and K239 - K343”; in test [10], “K239 - K66 and K239 - K868 and K239 - K1388”; in test [11] it was “K239 - K41 and K239 - K946”; in test [12], “K239 - K262 and K239 - K324 and K239 - K629 and K239 - K652”. In [13], the cross-linked residues entry is “K239 - K91 and K239 - K94”. Consider RPL18A, Q02543, for which the cross-linked residues entry in [14] was “K41 - K17 and K41 - K21”. For ACTR1A, P61163, in test [15], the cross-linked residues result was “K361 - K65 and K361 - K125 and K361 - K132”. As to HSPA9, P38646, the cross-linked residues result is “K135 - K123 and K291 - K123” in [16]; “K138 - K239 and K206 - K239 and K300 - K239 and K394 - K239 and K567 - K239 and K612 - K239 and K625 - K239 and K671 - K239 and K678 - K239” in test [17]. Take CCT4, P50991: the cross-linked residues result in test [18] is “K21 - K13 and K21 - K119 and K21 - K522 and K29 - K13 and K29 - K119 and K139 - K46 and K292 - K272 and K531 - K46”.

COPB1, P53618: the cross-linked residues entry in test [19] was “K949 - K487 and K949 - K631”. As to PDCD5, O14737, the cross-linked residues entry in test [3] was “K20 - K21 and K20 - K249 and K97 - K527 and K97 - K529 and K98 - K527”; in test [20] it was “K20 - K5 and K20 - K530 and K33 - K530”; in test [21], “K105 - K532 and K105 - K538”. With PRPF8, Q6P2Q9, the cross-linked residues result in test [22] was “K278 - K259 and K2249 - K204”; in test [23] it was “K847 - K417 and K1831 - K422”; in [24], “K2031 - K46 and T2033 - K51”. Regarding CMC1, Q7Z7K0, the cross-linked residues entry in [25] is “K15 - K93 and K90 - K93”. Turning to ERH, P84090, the cross-linked residues entry in [26] was “T11 - K580 and T11 - K593 and T11 - K622 and K90 - K676”; in [27], “T11 - K8 and T11 - K12 and T11 - K16 and K41 - K12 and K90 - K30”; in test [28], “T11 - K551 and T11 - K602”. Consider TMED10, P49755, for which the cross-linked residues result is “K133 - K103 and K145 - K103” in test [29]; “K140 - K152 and K145 - K152” in test [30]. As to FLOT1, O75955, the cross-linked residues entry in test [31] is “K184 - K169 and K219 - K211 and K285 - K280 and K340 - K350 and K422 - K350”.

With CCT5, P48643, the cross-linked residues entry was “K42 - K13 and K176 - K135 and K232 - K248 and K232 - K250 and K265 - T242 and Y274 - K284 and K275 - T246 and K275 - K263 and K392 - K82 and K496 - K135 and K535 - K13” in test [18]; “K42 - K21 and K42 - K126 and K483 - S134” in test [32]; “K368 - K250 and K392 - K250” in test [33].

For the substance NGDN, Q8NEJ9, in [34], the cross-linked residues result is “K38 - K228 and K98 - K375 and K98 - K380 and K112 - K223 and K115 - T476”. Turning to ERLIN1, O75477, in test [35], the cross-linked residues entry was “K277 - K287 and K286 - K275 and K287 - K285 and K330 - K287”. Take CCT3, P49368: in test [4], the cross-linked residues entry was “K21 - K7 and K21 - K16 and K21 - K20 and K21 - K459 and K31 - K20”.

Turning to EIF4A1, P60842, the cross-linked residues result in test [36] is “K369 - K41 and K381 - K41”.

The record behind these values is article PMC13423814.
